# According to patent US9017689B2, “Peptides for vaccine against birch allergy” (Circassia Limited, priority 2010, dated 2015):
# Not every detail of the peptide structures is certain; ends, links or a residue may be inferred. Ends that are not written are not given here.
# Tested on: Peripheral blood mononuclear cells (PBMCs)
# Test: Cytokine release assay (IL-10, IL-13, IFN-g multiplex bead assay)
# Assay type: cell-based, human
# Conditions: positive >4 times the background; 47 birch allergic subjects; peptide 100 μg/ml; 5 days
# Procedure: Peripheral blood mononuclear cells (PBMCs) were isolated from heparinised blood by Ficoll density gradient centrifugation. […] Following stimulation, culture supernatants (100 μl) were harvested for testing by multiplex bead assay.
# Multiplex cytokine bead assays (IL-10, IL-13, Interferon gamma (IFN-g)) were performed on thawed culture supernatants according to the manufacturer's instructions. Single measurements were performed for each culture supernatant sample. After completion of the multiplex assay, individual cytokine levels were determined by interpolation from the standard curve generated in the assay.
row,Sequence,"IL-10 responses, proportion of individuals [%]"
1,FNYETETTSVIPAARK [Bir01I],49

# Same assay, conditions: proportion of subjects in which peptide induced IL-13 or IFN-g above 100 pg/ml; 47 birch allergic subjects; peptide 100 μg/ml; 5 days
row,Sequence,% responders [%]
1,TNFKYNYSVIEGGPIG [Bir06D],25
2,KEKGETLLRAVESYLLAHS [Bir09C],27
3,ETLLRAVESYLLAHSDAY [Bir09],33
4,FNYETEATSVIPAARK [Bir01F],38
5,GSILKINNKYHTKGD [Bir08],17
6,PAARMFKAFILEGDKLVPK [Bir02J],48
7,PAARLFKAFILEGDTLIPK [Bir02E],31
8,TNFKYSYSVIEGGPVGD [Bir06B],19
9,SILKISNKYHTKGD [Bir08A],19
10,PAARMFKAFILDGDKLVPK [Bir02D],29
11,PTGMFVAGAKYMVIQGR [Bir12A],17
12,SNEIKIVATPNGGSILK [Bir07A],23
13,FNYETETTSVIPAARK [Bir01I],42
14,FNYEIEATSVIPAARK [Bir01G],33
15,SPFKYVKERVDEVDHA [Bir05],17
16,VKGKLVEKFKGLGVTLLHG [Bir17],25
17,KEMGETLLRAVESYLLAHS [Bir09B],31
18,FNYEIETTSVIPAARK [Bir01H],25
19,SNEIKIVATPEGGSILK [Bir07C],31
20,ANFKYSYSMIEGGALGD [Bir06],23
21,AERERIFKRFDAGGEGK [Bir16B],27
22,SNEIKIVATPQGGSILK [Bir07B],25
23,PAARLFKAFILEGDNLIPK [Bir02G],31
24,PGTIKKISFPEGFPFKYV [Bir04],33
25,SLNTLRLRRIFDLFDK [Bir15],27
26,SNEIKIVATPDGGSILK [Bir07],31
27,AERERIFKRFDANGEGK [Bir16A],31
28,FPFKYVKDRVDEVDHT [Bir05A],23
29,SNEIKIVATPGGGSILK [Bir07D],25
